Experimental data: the supplement of paper PMC11417369
± gives the standard deviation of the averaged measurements. This is one part of the list.

Each sequence was assayed on PfAP2-LT AP2 domain (GST-tagged) (assay: gcPBM binding intensity (ln(normalized median fluorescence intensity)); higher = stronger DNA binding).
Outline: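 Using an Agilent 4 × 180k array, primer-extended double-stranded 36-bp intergenic genomic probes and negative controls were exposed for 1 h to GST-fused P. falciparum DNA-binding domains expressed in E. coli. Binding was carried out in 1× PBS with 1% milk, 0.2 mg/ml BSA, 0.5% salmon testes DNA and 0.03% Triton X-100, and protein was detected with Alexa488 anti-GST antibody and a 488 nm scan. Binding intensity is the highest Masliner-normalised natural-log median intensity across replicate spots of either probe orientation.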

Going from “CTTATATGAAGCCTCTTTATTCATAAATAAGAATAA [TGCATGCA_negctrl_site120]” to “AGTATACATATATATACACACACATATATATATATA [CACACA_site7883]”, the “gcPBM binding intensity (ln)” value rises from 8.21 ± 0.38 to 9.805 ± 0.064.

First: AAACAACATGGACACGCACACACAAAAAAAGCATGC [CACACA_site73]
Second: TTAACAAAATTTCCGTGTACGTAAATAAGAACATAG [XGTACX_site7200]
The “gcPBM binding intensity (ln)” value of the first is higher: 9.71 ± 0.42 for the first, 8.71 ± 0.56 for the second.

“GATTAAATTTGACACTGTACAAAAAATAAAATGAGG [XGTACX_site504]” and “ATGAATATAAAATATACACACTTATATATTGAATGA [CACACA_site4274]” are within error of each other in “gcPBM binding intensity (ln)” value: 8.79 ± 0.51 for the first, 8.8 ± 0.42 for the second.

“GTTAATTCATTAAGGACACACAAAAAAAAAAAAAAA [CACACA_site998]” and “TTTTTTTTTTTTCTGTGTACATATATAATATATATA [XGTACX_site1592]” are within error of each other in “gcPBM binding intensity (ln)” value: 8.71 ± 0.53 for the first, 8.78 ± 0.37 for the second.

“ATATCTATATTTTAAAGTACGTAGTAAAAAGAAAAA [XGTACX_site4323]” and “TTTTATGAAAAGATGAGTACACAATACTTTTTAATT [XGTACX_site8253]” are within error of each other in “gcPBM binding intensity (ln)” value: 8.61 ± 0.47 for the first, 8.46 ± 0.45 for the second.

“TTTTTTGTTAAACCGGTGCATATAAATATATATATA [GTGCAC_site9989]” and “TAATTATTACACGGTATTATATATAATATGTTAAAA [GTGCAC_negctrl_site134]” are within error of each other in “gcPBM binding intensity (ln)” value: 8.64 ± 0.33 for the first, 8.49 ± 0.4 for the second.

“ATCATTTTTTATGCGTGTACATAAATTTATTAGGTT [XGTACX_site2786]” and “CACAAAAAAGTTCATACACACAACATATTTATATAT [CACACA_site2887]” are within error of each other in “gcPBM binding intensity (ln)” value: 9.01 ± 0.4 for the first, 9.05 ± 0.42 for the second.

“TAACAAAACATAGATTGTACATATTATAAATGTATA [XGTACX_site1543]” and “GTTACATACCTATACACACACATATATAAATAAATA [CACACA_site6549]” are within error of each other in “gcPBM binding intensity (ln)” value: 8.74 ± 0.41 for the first, 9.48 ± 0.35 for the second.

“ATATAAAAATACAGGTGTACATTTTTTCATATTTAT [XGTACX_site6959]” and “TATTCTTATCTTACCACACACAATGTACGAAAAGAT [CACACA_site6296]” are within error of each other in “gcPBM binding intensity (ln)” value: 8.77 ± 0.37 for the first, 8.95 ± 0.33 for the second.

“CAAAATATACACACGTGTACACAAATATTTACAAAA [XGTACX_site2257]” and “CAATATTATATTACTTGTACACATATGTAGTTTCGA [XGTACX_site8945]” are within error of each other in “gcPBM binding intensity (ln)” value: 9.19 ± 0.34 for the first, 8.86 ± 0.47 for the second.

“TTTCCCATAGGAAAAACACACATATATTATATATAA [CACACA_site1981]” and “TTGTCACTAATAGATGCATGCAATCATTCCATTTTT [TGCATGCA_site938]” are within error of each other in “gcPBM binding intensity (ln)” value: 8.57 ± 0.4 for the first, 8.98 ± 0.35 for the second.

“TTATGTCGTAAATACACACATACATATACATACACA [CACACA_site1374]” and “TTGTAATGATATATTTGTACTTAATATAATTGTATA [XGTACX_site2748]” are within error of each other in “gcPBM binding intensity (ln)” value: 9.12 ± 0.28 for the first, 8.61 ± 0.45 for the second.

Going from “AATAAATTGAAACACACACACACATATATATATATA [CACACA_site848]” to “GAAGATTTATCTTGCACACGCAAAAAAAAAAAAAAA [CACACA_site154]”, the “gcPBM binding intensity (ln)” value falls from 10.17 ± 0.042 to 8.78 ± 0.42.

“TTTATTGCTCTATATGCACACCTTAATTCTTCATTT [CACACA_site8682]” and “AAAAATAATCATAGTAGTACAAAAAAAAAAAAAAAA [XGTACX_site3736]” are within error of each other in “gcPBM binding intensity (ln)” value: 9.09 ± 0.57 for the first, 8.63 ± 0.42 for the second.

“TACGTAAATTCTAATACACACTATAGGATATTCTGC [CACACA_site7248]” and “GAAAATATTTCTATCTGTACTTATTTATATATATAT [XGTACX_site7317]” are within error of each other in “gcPBM binding intensity (ln)” value: 8.86 ± 0.42 for the first, 8.81 ± 0.47 for the second.

“ATGTACTATGATAATGCATGCAATAATACATTTTTA [TGCATGCA_site318]” and “TAATATATATATAATACACACTATTTTAATCACATA [CACACA_site4849]” are within error of each other in “gcPBM binding intensity (ln)” value: 8.98 ± 0.37 for the first, 8.66 ± 0.46 for the second.

“TTATTATGTATATATGCACACAATACCCAAAACAAC [CACACA_site80]” and “TTTTTCAATTGTAGTGGTACAGATATAATTATCTCT [XGTACX_site5500]” are within error of each other in “gcPBM binding intensity (ln)” value: 9.24 ± 0.35 for the first, 8.66 ± 0.53 for the second.

“TTCTATATATTATATGCATGTAAAACATATTAAAAT [TGCATGCA_site662]” and “TTTTTATGAAAATAAACACACGATTTATTATATATA [CACACA_site1311]” are within error of each other in “gcPBM binding intensity (ln)” value: 8.43 ± 0.35 for the first, 8.46 ± 0.43 for the second.

“TGCATGTAATTTTTGTGTCCACATAAAATATTTAAT [XGTACX_site5652]” and “ACATGTATTTATAAGAGTACATATGTGTGCATGTTT [XGTACX_site7946]” are within error of each other in “gcPBM binding intensity (ln)” value: 8.65 ± 0.28 for the first, 9.21 ± 0.33 for the second.

“TTTTATCGATATATCTGTACATATTACTTATAATAA [XGTACX_site57]” and “TTTATATATTATATAAATATTATTATACTTTAAATA [TGCATGCA_negctrl_site236]” are within error of each other in “gcPBM binding intensity (ln)” value: 8.79 ± 0.43 for the first, 8.07 ± 0.52 for the second.

“TTAATTTATTTATGCACACATATATAATTACACATA [CACACA_site4544]” and “TATAACTATTTATAATGTACTCATGTATAATTATAT [XGTACX_site7913]” are within error of each other in “gcPBM binding intensity (ln)” value: 8.99 ± 0.37 for the first, 8.66 ± 0.42 for the second.

Compared with “TGCTATAATTTATATACACACAAATATATACTCATA [CACACA_site6111]”, “ATGCTTTTGTCATGTGCACACACGTATATATTATAT [CACACA_site4163]” is higher in “gcPBM binding intensity (ln)” value: 8.86 ± 0.35 for the first, 9.64 ± 0.35 for the second.
